# In the supplement of paper PMC10441789:
# Some of the results follow. Antibody binding of pooled human sera (four to six donors per pool; dilution not stated) to peptides of the Trypanosoma cruzi antigen TSSA on microarrays. Quantile-normalised fluorescence in arbitrary units, mean of duplicate arrays; higher = more binding. No active / inactive call. The uninfected pools are read here as the healthy donors of the same country. The strongest signals lie near the top of the scale (about 60,000).
# How the values were obtained:
# Experiment in all cases: antibody binding signal (normalised fluorescence) (arbitrary fluorescence units); higher = stronger serum antibody binding to peptide
# [1] = test system: pooled sera of chronic Chagas disease patients, Argentina
# Procedure: (§1)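 Microarray of overlapping 15-residue peptides of the four Trypanosoma cruzi TSSA reference variants and 8- to 13-residue peptides of TSSAII 24-62, probed with one serum pool per country.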
# [2] = test system: pooled sera of chronic Chagas disease patients, Bolivia
# Procedure: as §1
# [3] = test system: pooled sera of chronic Chagas disease patients, Brazil
# Procedure: as §1
# [4] = test system: pooled sera of chronic Chagas disease patients, Colombia
# Procedure: as §1
# [5] = test system: pooled sera of chronic Chagas disease patients, Mexico
# Procedure: as §1
# [6] = test system: pooled sera of chronic Chagas disease patients, USA
# Procedure: as §1
# [7] = test system: pooled sera of uninfected people, Argentina
# Procedure: as §1
# [8] = test system: pooled sera of uninfected people, Bolivia
# Procedure: as §1
# [9] = test system: pooled sera of uninfected people, Colombia
# Procedure: as §1
# [10] = test system: pooled sera of uninfected people, Mexico
# Procedure: as §1
# [11] = test system: pooled sera of uninfected people, USA
# Procedure: as §1
Sequence,antibody binding signal [1],antibody binding signal [2],antibody binding signal [3],antibody binding signal [4],antibody binding signal [5],antibody binding signal [6],antibody binding signal [7],antibody binding signal [8],antibody binding signal [9],antibody binding signal [10],antibody binding signal [11]
ATGEAPSQPGASSGE,17100,37700,32200,315,344,8910,557,187,99.2,165,88.5
APSQPGASSGE,2510,3140,9060,260,4980,255,101,110,130,2630,95.5
EAPSQPGA,4360,11900,1320,74.7,87.1,186,176,139,276,237,216
SGTENKPAT,39800,27200,37400,398,948,8570,1980,1390,197,401,334
GEAEASSNKNDGSLS,176,1040,2110,438,718,1720,141,224,260,1710,640
KTAAGEAPSPSGASS,162,258,821,204,3180,4110,219,189,120,78.3,211
TPPSGTENK,51900,46300,49500,394,8460,25200,3190,516,901,399,418
PSGTENKPAT,47300,38100,47600,2200,4590,15200,2430,1580,710,500,997
SSTPPSGTENKP,49200,40000,44900,280,9550,30600,7740,969,736,427,727
TANGGSTSS,160,1160,265,156,259,317,257,154,106,239,213
APSQPGASSGEAEAS,424,438,8260,161,853,164,261,127,146,664,182
STSSTPPSGTENK,53700,52800,55300,738,7070,32000,2700,542,767,550,409
DKKTAAGEAPSPSGA,577,231,414,524,442,6370,222,156,1030,304,170
AGEAPSPSGASSGEA,199,161,3610,299,523,174,389,134,109,103,245
SSGEAEAS,128,96.3,224,85.4,104,78.3,193,125,77.1,66,191
PSGTEKKAAAGEAPS,15500,2500,7700,4600,4650,12100,621,461,201,266,372
PPSGTENKPATGEAP,50900,50000,52000,458,7870,45600,6580,1410,460,488,834
PGASSGEAEA,223,119,7070,143,121,75.2,142,83.5,94.2,78.6,62.9

Sequence,antibody binding signal [1],antibody binding signal [2],antibody binding signal [3],antibody binding signal [4],antibody binding signal [5],antibody binding signal [6],antibody binding signal [7],antibody binding signal [8],antibody binding signal [9],antibody binding signal [10],antibody binding signal [11]
TPPSGTEKKAAAGEA,35000,14000,27800,385,7460,1940,827,353,149,123,133
QPGASSGEAEASS,840,115,8100,143,168,143,156,161,121,94.4,106
NGGSTISTPPSGTEK,36200,24600,31300,176,23200,6790,759,255,277,184,170
PATGEAPSQPGAS,27800,43000,44800,198,212,25700,906,919,352,172,938
LSACTTANGGSTSST,166,162,291,226,190,204,142,175,218,182,113
NGGSTSSTPPSG,242,263,426,193,201,151,294,229,102,141,115
KPATGEAPSQ,46700,53100,48300,252,216,37500,754,657,146,207,170
ASSGEAEA,150,113,269,268,157,63.5,122,108,105,86.6,90.1
TPPSGTENKPAT,46700,51500,51100,1860,5110,30900,8550,1380,846,698,861
AAGEAPSPSGASSGE,361,214,2160,185,674,152,344,161,149,103,148
GGTPSPSGASSGEAE,174,120,5850,199,1110,235,225,215,275,112,244
TSSTPPSGTE,13100,652,10400,151,157,83.2,135,77.5,82.4,106,60.5
STSSTPPSG,279,238,224,367,161,137,183,146,99.2,148,103
EAPSQPGASS,6040,36000,905,111,118,448,173,159,192,174,161
NKPATGEAPSQPG,46000,48200,50600,440,168,40500,932,647,158,241,200
ENKPATGEAPSQP,45500,48800,51300,305,486,41000,942,683,109,159,159
SSGEAEASS,173,95.2,162,109,157,76,144,108,100,79.3,110
